{"source": "PubChem BioAssay AID1461", "about": "(National Center for Advancing Translational Sciences (NCATS), 2008)", "note": "Among all 220,000 compounds or so, about 2,300 (1%) were called active. Inconclusive means that the source gave no clear call. Such entries were picked first, then a sample of the others. Calls come from the whole dose curve; as a rule, active = well fitted inhibition curve with a large enough effect; inconclusive = small, poorly fitted or top-dose-only effect, or effect the other way; inactive = no such curve, though single readings can be large or run the other way. Potencies of inconclusive entries are left out as doubtful fits. Potency is the fitted concentration of half-maximal effect; tags give direction and shape of the fitted curve."}
{"target": "Neuropeptide S receptor (Homo sapiens) (UniProt Q6W5P4)", "sequence (Q6W5P4 whole entry, looked up)": "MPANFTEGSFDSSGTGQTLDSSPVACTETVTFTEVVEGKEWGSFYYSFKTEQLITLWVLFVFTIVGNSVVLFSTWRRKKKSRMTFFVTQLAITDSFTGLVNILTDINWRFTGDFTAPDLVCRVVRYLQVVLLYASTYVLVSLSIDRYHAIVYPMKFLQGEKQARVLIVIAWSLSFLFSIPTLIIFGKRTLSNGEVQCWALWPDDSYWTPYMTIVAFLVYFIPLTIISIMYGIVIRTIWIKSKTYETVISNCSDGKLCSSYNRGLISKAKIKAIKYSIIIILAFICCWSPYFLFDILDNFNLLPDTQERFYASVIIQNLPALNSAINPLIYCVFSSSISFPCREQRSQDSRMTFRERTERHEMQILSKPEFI", "test": "qHTS Assay for Antagonists of the Neuropeptide S Receptor: cAMP Signal Transduction; note: nearly all actives have a fitted effect of over 50% in size", "conditions": "CHO-NPSR cells, cAMP TR-FRET, antagonist mode; series mostly up to 38.3 µM"}
{"smiles": "O=C(Nc1ccncc1)c1cc(-c2ccccn2)nc2ccccc12", "Potency": "inconclusive [inhibitor, single point]"}
{"smiles": "CCOC(=O)c1cc(NC(=O)c2ccc(C)cc2)c(=O)oc1-c1ccccc1", "Potency": "inconclusive [inhibitor, single point]"}
{"smiles": "O=C(N/N=C(\\c1ccccc1)c1ccccn1)c1cccc([N+](=O)[O-])c1", "Potency": "inactive"}
{"smiles": "Cc1cc(C(=O)O)cc(S(=O)(=O)N2CCOCC2)c1C", "Potency": "inactive"}
{"smiles": "COc1ccccc1N1CCN(C(=O)c2ccc3[nH]c4c(c3c2)CC(C)CC4)CC1", "note": "(stereo unspecified)", "Potency": "inconclusive [inhibitor, single point]"}
{"smiles": "O=c1nc2ccccc2c2n1CC(CN1CCN(C(c3ccccc3)c3ccccc3)CC1)N2", "note": "(stereo unspecified)", "Potency": "inconclusive [inhibitor, single point]"}
{"smiles": "Cc1nc(Nc2ccccc2)[nH]c(=O)c1CCC(C)C", "Potency": "inconclusive [inhibitor, single point]"}
{"smiles": "Cc1nn(Cc2ccc(Cl)c(Cl)c2)c(C)c1NC(=O)c1sc2ccccc2c1Cl", "Potency": "inconclusive [inhibitor, single point]"}
{"smiles": "CCOC(=O)COc1ccc2ccccc2c1/C=C/[N+](=O)[O-]", "Potency": "inconclusive [inhibitor, single point]"}
{"smiles": "Cn1c(=O)c2c(nc(Cc3ccc(N)cc3)n2C)n(C)c1=O", "Potency": "inactive"}
{"smiles": "Cc1ccc(S(=O)(=O)CC#CCOC(=O)c2ccc([N+](=O)[O-])cc2)cc1", "Potency": "inactive"}
{"smiles": "Cc1ccc(OCCn2cc(/C(N)=N/O)c3ccccc32)cc1C", "Potency": "inconclusive [activator, partial curve]"}
{"smiles": "Cc1cc2c(ccc3c2no[n+]3[O-])nn1", "Potency": "inconclusive [inhibitor, partial curve, poor fit]"}
{"smiles": "Cc1ccc(/C=C/c2nnc(-c3cccs3)o2)cc1", "Potency": "inconclusive [inhibitor, single point]"}
{"smiles": "CN(C)CCCN(C(=O)CCc1ccccc1)c1nc2ccc(Cl)cc2s1", "Potency": "inconclusive [inhibitor, single point]"}
{"smiles": "COc1ccc(NC(=O)c2cc3sccc3n2Cc2ccc(F)cc2)cc1OC", "Potency": "inconclusive [inhibitor, single point]"}
{"smiles": "CC(C#N)Sc1nnc(Nc2ccccc2)s1", "note": "(stereo unspecified)", "Potency": "inactive"}
{"smiles": "CC(=O)O[C@]1(C(C)=O)CC[C@H]2[C@@H]3C[C@H](C)C4=CC(=O)CC[C@]4(C)[C@H]3CC[C@@]21C", "Potency": "active: 2.51 µM"}
{"smiles": "Cc1ccc(-c2nnc(Nc3ccc4c(c3)OCO4)c3ccccc23)cc1S(N)(=O)=O", "Potency": "inconclusive [inhibitor, single point]"}
{"smiles": "Cn1c(=O)n(C)c2cc(/C=N/NC(=O)c3cc4cc(Br)ccc4o3)ccc21", "Potency": "inconclusive [inhibitor, single point]"}
{"smiles": "O=C(O)c1cccc(N2C(=O)/C(=C/c3ccc([N+](=O)[O-])cc3)C=C2c2ccccc2)c1", "Potency": "active: 5.01 µM"}
{"smiles": "O=C(NC1CCCCC1)C(c1ccc(F)cc1)N(Cc1ccc2c(c1)OCO2)C(=O)c1cnsn1", "note": "(stereo unspecified)", "Potency": "inconclusive [inhibitor, single point]"}
{"smiles": "N#CC1=C(N)NC(SCC(=O)Nc2ccccc2)=C(C#N)C12CCCC2", "Potency": "inactive"}
{"smiles": "O=C(Nc1ccc(-n2nncc2-c2ccco2)cc1)c1ccc(F)cc1", "Potency": "inconclusive [inhibitor, partial curve]"}
{"smiles": "CC(C)(C)c1cc(C(c2cccnc2)N2CCN(CCO)CC2)cc(C(C)(C)C)c1O", "note": "(stereo unspecified)", "Potency": "inconclusive [inhibitor, single point]"}
{"smiles": "COc1cc2c(cc1NC(=O)c1cccc([N+](=O)[O-])c1C)oc1ccccc12", "Potency": "inconclusive [inhibitor, partial curve]"}
{"smiles": "CCCCOC(=O)C(C)Nc1n[nH]c(=O)[nH]c1=O", "note": "(stereo unspecified)", "Potency": "inconclusive [inhibitor, single point]"}
{"smiles": "COc1ccc(/C=C/C(=O)NC(=S)Nc2ccccc2C(=O)NC2CCCCC2)cc1", "Potency": "inconclusive [inhibitor, single point]"}
{"smiles": "Cn1c(N)c(C(=O)COC(=O)C2(c3ccc(Cl)cc3)CCCC2)c(=O)n(C)c1=O", "Potency": "inconclusive [inhibitor, single point]"}
{"smiles": "COc1cc(/C=C/C(=O)OC2CC3CCC2(C)C3(C)C)ccc1O", "note": "(stereo unspecified)", "Potency": "inconclusive [inhibitor, single point]"}
{"smiles": "COc1ccc2nc(SCC(=O)N(C)C3CCCCC3)c(C#N)cc2c1", "Potency": "inactive"}
{"smiles": "COc1ccc(C)cc1S(=O)(=O)NCCC1=CCCCC1", "Potency": "inconclusive [inhibitor, single point]"}
{"smiles": "COc1ccc2c(=O)c3c(=O)n(-c4ccccc4)c(-c4ccc(C)cc4)nc3oc2c1", "Potency": "inconclusive [activator, single point]"}
{"smiles": "CCOc1cc2c3c(c1)C(C)CC(C)(C)N3C(=O)C2=O", "note": "(stereo unspecified)", "Potency": "inconclusive [activator, single point]"}
{"smiles": "Cc1ccc(Cl)cc1N1CCN(S(C)(=O)=O)CC1", "Potency": "inconclusive [activator, partial curve]"}
{"smiles": "COc1ccc(C)cc1S(=O)(=O)Nc1cccc(Cl)c1", "Potency": "inconclusive [inhibitor, single point]"}
{"smiles": "CCCCn1c(SCC(=O)NCc2ccco2)nc2c(sc3ccccc32)c1=O", "Potency": "inconclusive [inhibitor, single point]"}
{"smiles": "CCOc1ccc2nc3c(cc2c1)CN(CCOC)C(=NC)S3", "Potency": "inconclusive [activator, single point]"}
{"smiles": "CC(C)[C@H](NC(=O)Cc1ccccc1)C(=O)OCc1cc(=O)n2c(n1)sc1ccccc12", "Potency": "inconclusive [inhibitor, single point]"}
{"smiles": "O=C(CCCN1C(=O)c2ccccc2C1=O)N1CCc2ccccc2C1", "Potency": "inconclusive [inhibitor, single point]"}
{"smiles": "CCOC(=O)c1sc2nc(CC(=O)OC)nc(NCc3ccc(F)cc3)c2c1C", "Potency": "inconclusive [inhibitor, partial curve]"}
{"smiles": "O=C(NC1CCCC1)c1ccc(Br)o1", "Potency": "inactive"}
{"smiles": "CCOc1ccc2nc(N3C(=O)/C(=C/c4ccc(Cl)cc4)NC3=S)sc2c1", "Potency": "inactive"}
{"smiles": "O=C(CN1CCN(C2CCCCC2)CC1)Nc1ccccc1-c1ccccc1", "Potency": "inactive"}
{"smiles": "CCOC(=O)C(C)Sc1nc(-c2ccco2)cc(C(F)(F)F)c1C#N", "note": "(stereo unspecified)", "Potency": "inconclusive [inhibitor, partial curve]"}
{"smiles": "COc1ccc(-c2nc(NC(=O)Cn3ccc(C(F)(F)F)n3)sc2C)cc1", "Potency": "inconclusive [inhibitor, single point]"}
{"smiles": "CC(C)C[C@H](NC(=O)c1nc[nH]c1C(=O)NC1CCN(C(=O)OC(C)(C)C)CC1)C(=O)OCc1ccccc1", "Potency": "inconclusive [activator, single point]"}
{"smiles": "O=C1CCc2cc(S(=O)(=O)N3CCN(C(=O)c4ccco4)CC3)ccc2N1", "Potency": "inactive"}
{"smiles": "COc1ccc(CCNC(=O)c2ccc3nc(-c4ccco4)c(-c4ccco4)nc3c2)cc1OC", "Potency": "inconclusive [inhibitor, single point]"}
{"smiles": "COc1cc(CNn2c(C)n[nH]c2=S)cc(Cl)c1OCc1ccc(F)cc1", "Potency": "inactive"}
{"smiles": "CC(NCCC(c1ccccc1)c1ccccc1)c1ccccc1", "note": "(stereo unspecified)", "Potency": "inconclusive [inhibitor, single point]"}
{"smiles": "O=C1c2ccccc2-c2onc3ccc(N4CCCC4)c1c23", "Potency": "active: 12.6 µM"}
{"smiles": "CCCCCOc1ccc(Br)cc1CSC(=N)N", "Potency": "inconclusive [activator, single point]"}
{"smiles": "CCOC(=O)Cn1c(=NC(=O)CSC(C)=O)sc2cc(F)ccc21", "Potency": "inconclusive [activator, single point]"}
{"smiles": "Cc1ccc(C(C(=O)NC2CCCCC2)N(Cc2cccnc2)C(=O)C2COc3ccccc3O2)o1", "note": "(stereo unspecified)", "Potency": "inconclusive [inhibitor, partial curve, poor fit]"}
{"smiles": "COc1cc(/C=C(/NC(=O)c2ccccc2)C(=O)Nc2cccc(O)c2)c([N+](=O)[O-])cc1OC", "Potency": "inconclusive [inhibitor, single point]"}
{"smiles": "CCOC(=O)c1ccc(Oc2nc(SC)nc(N(C)C)n2)cc1", "Potency": "inconclusive [inhibitor, full curve, poor fit]"}
{"smiles": "Cn1cc(-c2nnnn2-c2cccc(C(F)(F)F)c2)c(C(F)(F)F)n1", "Potency": "inactive"}
{"smiles": "CCOc1ccc(/C=C/C(=O)Nc2ccc(C(N)=O)cc2)cc1OC", "Potency": "inactive"}
{"smiles": "Cc1ccc(S(=O)(=O)NNC(=O)c2cnn(-c3ccccc3)c2-n2cccc2)cc1", "Potency": "inconclusive [inhibitor, single point]"}
{"smiles": "O=C(O)C1=NOC(CNC(=O)c2ccccc2Cl)C1", "note": "(stereo unspecified)", "Potency": "inactive"}
{"smiles": "CCC(C)n1c(SCC(=O)NC(=O)Nc2ccc3c(c2)OCCO3)nc2ccccc2c1=O", "note": "(stereo unspecified)", "Potency": "inconclusive [inhibitor, single point]"}
{"smiles": "O=C(COC(=O)C1CC(=O)N(c2ccc3c(c2)OCCO3)C1)NC1CCCc2ccccc21", "note": "(stereo unspecified)", "Potency": "inconclusive [inhibitor, partial curve]"}
{"smiles": "N#CCC(CNc1ncc(C(F)(F)F)cc1Cl)OC(=O)c1ccc(Cl)cc1Cl", "note": "(stereo unspecified)", "Potency": "inconclusive [inhibitor, single point]"}
{"smiles": "CCCCCCOC(=O)C(C#N)c1nc2ccccc2nc1N1CCOCC1", "note": "(stereo unspecified)", "Potency": "inconclusive [inhibitor, single point]"}
{"smiles": "CCOC(=O)CS(=O)(=O)c1nc(-c2ccc(F)cc2)cc(C(F)(F)F)n1", "Potency": "inconclusive [inhibitor, single point]"}
